The other results are listed elsewhere or left out. Most values come without repeats; read them as rough.
Tests used:
Assay in all cases: cell count relative to DMSO control; melanoma cells; higher = more viable cells
Details in all cases: library dose: low library concentration; 72 h
WM115 = test system: WM115
WM1716 = test system: WM1716
WM1745 = test system: WM1745
WM3526 = test system: WM3526
WM3619 = test system: WM3619
WM451Lu = test system: WM451Lu
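Further: cell number obtained by counting DAPI-stained nuclei in high-throughput microscope images with image analysis software, screen run in 1,536-well plates.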

| SMILES | cell count (WM115) | cell count (WM1716) | cell count (WM1745) | cell count (WM3526) | cell count (WM3619) | cell count (WM451Lu) |
| --- | --- | --- | --- | --- | --- | --- |
| C/C(O)=C(\C#N)C(=O)Nc1cc(Br)ccc1Br + O=C(Oc1ccc([N+](=O)[O-])cc1)N1CCC(C(O)(c2ccc3c(c2)OCO3)c2ccc3c(c2)OCO3)CC1 [JZL184] (first compound 2 µM, partner dose 1 µM) | 93.8% | 82.4% | 97.5% | 78.1% | 83.8% | 120% |
| Cc1cc(N2CCOCC2)cc2[nH]c(-c3c(NC[C@@H](O)c4cccc(Cl)c4)cc[nH]c3=O)nc12 + C/C(O)=C(\C#N)C(=O)Nc1cc(Br)ccc1Br [LFM-A13] (first compound 0.2 µM, partner dose 2 µM) | 102% | 104% | 81% | 106% | 119% | 130% |
| C[C@]1(c2nc3c(C(N)=O)cccc3[nH]2)CCCN1 [Veliparib] + Cc1cc(SCc2sc(-c3ccc(C(F)(F)F)c(F)c3)nc2C)ccc1OCC(=O)O [GW0742] (first compound 1.4 µM, partner dose 2 µM) | 92.4% | 89.1% | 98.2% | 93.8% | 114% | 102% |
| Cn1nnc2c(C(N)=O)ncn2c1=O [temozolomide] + Cc1cc(SCc2sc(-c3ccc(C(F)(F)F)c(F)c3)nc2C)ccc1OCC(=O)O [GW0742] (first compound 2 µM, partner dose 2 µM) | 96.2% | 88% | 103% | 101% | 112% | 119% |
| O=C(O)c1ccc(-c2c[nH]c3ncc(-c4ccccc4)cc23)cc1C1CCCC1 + O=C(Oc1ccc([N+](=O)[O-])cc1)N1CCC(C(O)(c2ccc3c(c2)OCO3)c2ccc3c(c2)OCO3)CC1 [JZL184] (first compound 0.16 µM, partner dose 1 µM) | 105% | 91.6% | 96.5% | 102% | 105% | 108% |
| Cc1cn(-c2cc(NC(=O)c3ccc(C)c(Nc4nccc(-c5cccnc5)n4)c3)cc(C(F)(F)F)c2)cn1 [nilotinib] + C/C(O)=C(\C#N)C(=O)Nc1cc(Br)ccc1Br [LFM-A13] (first compound 0.2 µM, partner dose 2 µM) | 110% | 112% | 99.7% | 136% | 108% | 118% |
| O=C(Nc1cc(C(F)(F)F)cc(C(F)(F)F)c1)c1cc(Cl)ccc1O + Cc1cc(SCc2sc(-c3ccc(C(F)(F)F)c(F)c3)nc2C)ccc1OCC(=O)O [GW0742] (first compound 0.016 µM, partner dose 2 µM) | 95.7% | 109% | 94.4% | 92.7% | 94.6% | 92.1% |
| NC(=O)c1ccc(N(C(N)=O)c2c(F)cccc2F)nc1-c1ccc(F)cc1F + C[C@]12O[C@H](C[C@]1(O)CO)n1c3ccccc3c3c4c(c5c6ccccc6n2c5c31)CNC4=O [Lestaurtinib] (first compound 0.4 µM, partner dose 0.004 µM) | 87.8% | 94.7% | 99.9% | 78.5% | 86.3% | 93.9% |
| O=c1[nH]nc(Sc2ncc([N+](=O)[O-])s2)n1-c1ccc2c(c1)OCCO2 + C/C(O)=C(\C#N)C(=O)Nc1cc(Br)ccc1Br [LFM-A13] (first compound 0.2 µM, partner dose 2 µM) | 96.9% | 101% | 103% | 96.6% | 97.6% | 103% |
| NCC(=O)Nc1ccc(-n2nc(C(F)(F)F)cc2-c2ccc3c(ccc4ccccc43)c2)cc1 + Cc1cc(SCc2sc(-c3ccc(C(F)(F)F)c(F)c3)nc2C)ccc1OCC(=O)O [GW0742] (first compound 1 µM, partner dose 2 µM) | 98.3% | 90% | 109% | 47.1% | 100% | 61.5% |
| C/C(O)=C(\C#N)C(=O)Nc1cc(Br)ccc1Br + COc1cc(N2CCC(N3CCN(C)CC3)CC2)ccc1Nc1ncc(Cl)c(Nc2ccccc2S(=O)(=O)C(C)C)n1 [NVP-TAE684] (first compound 2 µM, partner dose 0.08 µM) | 90.7% | 101% | 84.2% | 85.2% | 91.6% | 108% |
| CC[C@]1(O)C[C@H]2CN(CCc3c([nH]c4ccccc34)[C@@](C(=O)OC)(c3cc4c(cc3OC)N(C=O)[C@H]3[C@@](O)(C(=O)OC)[C@H](OC(C)=O)[C@]5(CC)C=CCN6CC[C@]43[C@@H]65)C2)C1 [vincristine] + C[C@]12O[C@H](C[C@]1(O)CO)n1c3ccccc3c3c4c(c5c6ccccc6n2c5c31)CNC4=O [Lestaurtinib] (first compound 0.0001 µM, partner dose 0.004 µM) | 49.7% | 45.8% | 87.8% | 54.4% | 44.1% | 50.5% |
| CCCCCCCCCCCCCCCCCCOP(=O)([O-])OC1CC[N+](C)(C)CC1 [Perifosine] + N.N.[Cl][Pt][Cl] [cisplatin] (first compound 0.4 µM, partner dose 1.6 µM) | 96.8% | 92.2% | 113% | 91.5% | 89.7% | 102% |
| O=C(Nc1cc(C(F)(F)F)cc(C(F)(F)F)c1)c1cc(Cl)ccc1O + Cn1cc(C2=C(c3cn(C4CCN(Cc5ccccn5)CC4)c4ccccc34)C(=O)NC2=O)c2ccccc21 [Enzastaurin] (first compound 0.016 µM, partner dose 0.8 µM) | 106% | 122% | 90.8% | 130% | 105% | 122% |
| Cc1ccc(Nc2nccc(N(C)c3ccc4c(C)n(C)nc4c3)n2)cc1S(N)(=O)=O [Pazopanib] + C[As](C)SC[C@H](NC(=O)CC[C@H](N)C(=O)O)C(=O)NCC(=O)O [Darinaparsin] (first compound 0.4 µM, partner dose 0.4 µM) | 104% | 84.2% | 93.3% | 114% | 98.2% | 109% |
| Nc1nc(F)nc2c1ncn2[C@@H]1O[C@H](CO)[C@@H](O)[C@@H]1O [fludarabine] + Cc1cc(SCc2sc(-c3ccc(C(F)(F)F)c(F)c3)nc2C)ccc1OCC(=O)O [GW0742] (first compound 0.2 µM, partner dose 2 µM) | 90.3% | 113% | 104% | 45.6% | 102% | 53.2% |
| NC(=O)c1ccc(N(C(N)=O)c2c(F)cccc2F)nc1-c1ccc(F)cc1F + C[As](C)SC[C@H](NC(=O)CC[C@H](N)C(=O)O)C(=O)NCC(=O)O [Darinaparsin] (first compound 0.4 µM, partner dose 0.4 µM) | 92.5% | 114% | 107% | 88.2% | 101% | 103% |
| C/C(O)=C(\C#N)C(=O)Nc1cc(Br)ccc1Br + Cc1cc([N+](=O)[O-])ccc1NS(=O)(=O)c1cc(Cl)ccc1Cl [FH535] (first compound 2 µM, partner dose 1 µM) | 78.6% | 88.9% | 94.8% | 90.8% | 93.3% | 99.3% |
| CN(c1ncccc1CNc1nc(Nc2ccc3c(c2)CC(=O)N3)ncc1C(F)(F)F)S(C)(=O)=O + N.N.[Cl][Pt][Cl] [cisplatin] (first compound 0.08 µM, partner dose 1.6 µM) | 76.7% | 96.5% | 87.4% | 97.5% | 96.9% | 79.1% |
| COc1ccc2c(c1)CCC1C2CCC2(C)C(NCCCCCCN3C(=O)C=CC3=O)CCC12 (stereo not drawn) + O=C(Oc1ccc([N+](=O)[O-])cc1)N1CCC(C(O)(c2ccc3c(c2)OCO3)c2ccc3c(c2)OCO3)CC1 [JZL184] (first compound 0.4 µM, partner dose 1 µM) | 92.4% | 76.2% | 85.4% | 81.5% | 90.5% | 107% |
| Cc1ccc(Nc2nccc(N(C)c3ccc4c(C)n(C)nc4c3)n2)cc1S(N)(=O)=O [Pazopanib] + C/C(O)=C(\C#N)C(=O)Nc1cc(Br)ccc1Br [LFM-A13] (first compound 0.4 µM, partner dose 2 µM) | 99.3% | 77.1% | 101% | 105% | 91.7% | 111% |
| N#Cc1c(O)c2c(-c3ccc(-c4ccccc4O)cc3)csc2[nH]c1=O + Cc1cc(SCc2sc(-c3ccc(C(F)(F)F)c(F)c3)nc2C)ccc1OCC(=O)O [GW0742] (first compound 2 µM, partner dose 2 µM) | 98.7% | 98.6% | 85.5% | 80.2% | 105% | 50.2% |
| CCCCCCCCc1ccc(CCC(N)(CO)CO)cc1 [fingolimod] + C/C(O)=C(\C#N)C(=O)Nc1cc(Br)ccc1Br [LFM-A13] (first compound 2 µM, partner dose 2 µM) | 86.1% | 66.3% | 87.7% | 82.9% | 89.8% | 69.6% |
